# Experimental data: PubChem BioAssay AID686978 (National Center for Advancing Translational Sciences (NCATS), 2013)
# Values joined by “and” are separate entries in the source; they are usually repeats but may differ in a detail not shown here. Equal values may be shown once. In all, about 420,000 compounds went through this assay and about 64,000 (15%) were called active. The inconclusive results got no clear call from the source; some entries with a clear call stand among them for comparison. Calls follow the shape of the dose curve; as a rule, active = well fitted inhibition curve with a large enough effect; inconclusive = small, poorly fitted or top-dose-only effect; inactive = flat fitted curve, though single readings scatter. A potency beside an inconclusive call is a rough fit, not a confirmed value.
# Experiment: qHTS for Inhibitors of human tyrosyl-DNA phosphodiesterase 1 (TDP1): qHTS in cells in absence of CPT; also: nearly all actives have a fitted effect of over 55% in size
# Conditions: DT40 Tdp1-/- hTDP1 cells, no CPT, ATP luminescence, 48 h; activity change, negative = growth inhibition: at 46.2 µM (top of the series) unless noted
# Procedure, shortened: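 Seeded 400 DT40-hTDP1 cells/well (vehicle DMSO, no 20 nM CPT); pinned compounds; ≥48 hr at 37 °C; CellTiter-Glo luminescence as viability measure.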
# % is scaled to controls: 0 for no effect and ±100 for the full control effect; potency is read from the fitted curve at half-maximal effect; tags tell the direction and shape of the fitted curve.
SMILES,Potency,"activity change, negative = growth inhibition"
c1ccc(CC2CCN(Cc3nc(-c4ccccc4)no3)CC2)cc1,"inconclusive: 0.0731 µM [inhibitor, full curve, poor fit]",
COc1ccccc1C(=O)Nc1ccc(NC(=O)c2cccs2)cc1,"inconclusive: 20.6 µM [inhibitor, single point]",
CC(C)(Cc1ccc(O)cc1)NC(=O)c1ccccc1,inactive,
C=CCNc1ncnc2c1ncn2[C@H]1CN(Cc2ccc3c(c2)OCO3)C[C@@H](CO)O1,"inconclusive: 9.2 µM [inhibitor, single point]",
COc1cc(-c2nc3ccccn3c2Nc2ccccc2C)ccc1O,"inconclusive: 20.6 µM [inhibitor, single point]",
O=C(CN1C(=O)c2ccccc2C1=O)Nc1cccc2cccnc12,inactive,
Clc1ccc(OCCOCCOc2cccc3cccnc23)c(Br)c1,"inconclusive: 13 µM [inhibitor, partial curve, poor fit]",
CCOc1ccccc1NC(=O)COC(=O)c1cn(CC)c2nc(C)ccc2c1=O,"inconclusive: 20.6 µM [inhibitor, single point]",
O=C(Nc1cccc(C(F)(F)F)c1)N1CCC(CN2CCCCCC2)CC1,"inconclusive: 18.4 µM [inhibitor, partial curve]",
COc1ccc(-c2ccc(N3C(c4cc(OC)cc(OC)c4)=Cc4ccc(OC)cc4C3CC(C)=O)cc2)cc1 (stereo unspecified),active: 6.51 µM,
CCOC(=O)c1c(CCl)nc2ccccc2c1C,"inconclusive: 29.1 µM [inhibitor, single point]",
O=C(N1CCN(c2ccccc2)CC1)C1(S(=O)(=O)c2ccc(Cl)cc2)CC1,"inconclusive: 20.6 µM [inhibitor, partial curve, poor fit]",
COc1ccc(CNC(=O)c2cc(=O)c3ccc(C)c(C)c3o2)cc1,"inconclusive: 10.3 µM [inhibitor, partial curve, poor fit]",
Cc1ccc(OCC(=O)NNC(=O)C(=O)N2CCCC2)c(C)c1,inactive,
COCCCn1c(SCC(=O)NC2CCCC2)nnc1-c1ccccc1,inactive,
CCOC(=O)c1cnc2c(cnn2CC)c1NN=C(C)C,"inconclusive: 26.6 µM [inhibitor, single point] and inconclusive: 29.9 µM [inhibitor, single point]",
O=C(Nc1cccc2ccccc12)/C(=C/c1cccc([N+](=O)[O-])c1)NC(=O)c1cccs1,"inconclusive: 23.1 µM [inhibitor, single point]",
CCc1ccc(Nc2n[n+](-c3ccccc3)c(-c3c(Cl)cccc3Cl)s2)cc1,active: 14.6 µM,
Cc1ccc(S(=O)(=O)N(Cc2ccccc2)Cc2ccco2)cc1,"inconclusive: 16.4 µM [inhibitor, partial curve]",
COC(=O)c1ccc(C(=O)NC(=S)Nc2ccc3nc(SC)sc3c2)cc1,"inconclusive: 20.6 µM [inhibitor, single point]",
COc1ccc(CC(=O)NCCc2sc(-c3ccc(Cl)cc3)nc2C)cc1OC,active: 20.6 µM,
COc1ccccc1Cc1c(-c2ccc(OC)c(OC)c2)nc2ccc(Cl)cn12,"inconclusive: 18.4 µM [inhibitor, single point]",
O=C(NC12CC3CC(CC(C3)C1)C2)c1ccc(-c2cccc(Cl)c2)o1,"inconclusive: 18.4 µM [inhibitor, partial curve, poor fit]",
O=[N+]([O-])c1ccc2nn(Cc3ccccc3)cc2c1,"inconclusive: 5.8 µM [inhibitor, full curve]",

SMILES,Potency,"activity change, negative = growth inhibition"
CN(CCc1ccccc1)C(=O)c1ccc(NC(=O)Cc2cccc(NC(=O)C3CCN(C(=O)c4ccccc4)CC3)c2)cc1,"inconclusive: 20.6 µM [inhibitor, single point]",
Clc1c(CSc2nc3ccccc3o2)nc2sccn12,inactive,
CS(=O)(=O)N1CCC(C(=O)NCc2ccc(F)cc2Cl)CC1,inactive,
Cc1[nH]c2ccccc2c1C(c1ccccn1)N1CCC(C)CC1 (stereo unspecified),active: 20.6 µM,
Cc1ccc(C)c(-c2cc(C(=O)Nc3cccnc3)c3ccccc3n2)c1,"inconclusive: 16.4 µM [inhibitor, single point]",
COCCn1c(=O)c(-c2ccccc2)nc2cnc(N(C)C)nc21,"inconclusive: 29.1 µM [inhibitor, single point]",
COc1cccc(CNC(=O)C(=O)NCCc2ccc(OC)c(OC)c2)c1,"inconclusive: 25.9 µM [inhibitor, single point]",
COc1cc(-c2nnc(SCC(=O)O)n2-c2ccccc2)cc(OC)c1OC,"inconclusive: 36.6 µM [inhibitor, partial curve, poor fit]",
Cc1ccc(S(=O)(=O)NC(=O)Nc2nc(-c3ccc(F)c(F)c3)cs2)cc1,inactive,
Cc1cccc(-n2c(SCC(N)=O)nc3c(c2=O)C2(CCCC2)Cc2ccccc2-3)c1,inactive,
CCN(CC)c1ccc(/C=N/OCC(=O)N2CCCc3ccccc32)cc1,"inconclusive: 25.9 µM [inhibitor, single point]",
COc1cc(-c2c(C#N)c(N)nc3c2c(C)nn3-c2ccc(C)c(C)c2)cc(OC)c1OC,"inconclusive: 29.1 µM [inhibitor, single point]",
CCc1nnc(NC(=O)CSc2nnc(COc3cccc(C)c3)o2)s1,inactive,
Cc1[nH]c2ccccc2c1/C=N/NC(=O)c1ccccc1,"inconclusive: 7.31 µM [inhibitor, partial curve]",
CC(=O)Nc1c(Cl)cc2c(c1Cl)Cc1cc(N)ccc1-2,"inconclusive: 18.4 µM [inhibitor, partial curve, poor fit]",
O=C(CN1C(=O)c2ccccc2C1=O)Nc1ccc(-c2nc3ccccc3o2)cc1,"inconclusive: 18.4 µM [inhibitor, single point]",
CC1Cc2ccccc2N1C(=O)COC(=O)c1c2c(nc3ccccc13)CCCCC2 (stereo unspecified),active: 11.6 µM,
COc1ccccc1NC(=O)Nc1nc2ccc(S(N)(=O)=O)cc2s1,"inconclusive: 16.4 µM [inhibitor, partial curve]",
Cc1cc(C)c2c(CN3CCN(Cc4ccc5c(c4)OCO5)CC3)cc(=O)oc2c1,active: 16.4 µM,
COc1ccccc1CNS(=O)(=O)c1ccc(-c2cc(C(F)(F)F)on2)s1,active: 20.6 µM,
C[n+]1ccc(/C=C/c2ccc(C=S)cc2)c2ccccc21,active: 3.16 µM,
COC(=O)c1ccc(NC(=O)c2cc[n+]([O-])cc2)cc1,"inconclusive: 4.61 µM [inhibitor, partial curve]",
CN=c1scc(C)n1/N=C/c1ccc(O)cc1,active: 23.1 µM,
CN(Cc1ccccc1)S(=O)(=O)c1ccc(Cl)c(C(=O)NCc2ccc3c(c2)OCO3)c1,"inconclusive: 16.4 µM [inhibitor, single point]",

SMILES,Potency,"activity change, negative = growth inhibition"
Cc1ccc(C)c(NC(=S)Nc2cccc3cnccc23)c1,active: 16.4 µM,
C=CC[C@@H](CC(=O)N(CCO)Cc1ccccc1)C(=O)N[C@H](COC(=O)[C@@H](CC=C)CC(=O)OC(C)(C)C)Cc1c[nH]c2ccccc12,active: 23.1 µM,
CCOC(=O)c1nnn(-c2ccc([N+](=O)[O-])cc2)c1C,inactive,
CCC(C(=O)N1CCN(c2ccccn2)CC1)n1nc(C)n2c(cc3occc32)c1=O (stereo unspecified),"inconclusive: 32.6 µM [inhibitor, single point]",
COC(=O)c1ccc2nc(-c3ccc(C)cc3)c(CC3CCCCC3)n2c1,active: 16.4 µM,
Cn1nc(-c2ccccc2F)c2cc(C(=O)NCc3ccc(Cl)cc3)sc21,active: 16.4 µM,
CC1=C(C(=O)OC(C)C)C(c2cncc(-c3ccc(F)cc3)c2)C(C#N)=C(N)O1 (stereo unspecified),"inconclusive: 13 µM [inhibitor, partial curve]",
CC(=O)N(C)c1ccc(NC(=O)Nc2ccc(C)c(C)c2)cc1,active: 18.4 µM,
CCN1CCc2c(sc(NC(=O)C3COc4ccccc4O3)c2C(N)=O)C1 (stereo unspecified),"inconclusive: 20.6 µM [inhibitor, single point]",
COc1cc2cc(C(c3nnnn3C3CCCC3)N3CCCCC3)c(=O)[nH]c2cc1OC (stereo unspecified),inactive,
c1ccc(CSc2nccc(-c3ccco3)n2)cc1,,inconclusive: -30.7% [inhibitor]
CCS(=O)(=O)N1Cc2cc(C(=O)NCC3CC3)nc(-c3cccc(-c4cccnc4)c3)c2[C@@H]1CCO,active: 25.9 µM,
O=Cc1ccc([B-](F)(F)F)s1,inactive,
COc1ccc(NC(=O)C(=O)NCCc2sc(-c3ccc(Cl)cc3)nc2C)cc1,inactive,
CCOC(=O)c1cc(-c2ccccc2)nc2c(O)cccc12,inactive,
CCOc1ccccc1N1CCN(C(=O)c2ccc(S(=O)(=O)Nc3ccccc3)cc2)CC1,"inconclusive: 29.1 µM [inhibitor, single point]",
CCOc1ccc2nc(S(N)(=O)=O)sc2c1,"inconclusive: 33.5 µM [inhibitor, single point]",
Cn1nnnc1SCCNCc1cc(Cl)ccc1OCc1ccccc1,active: 23.1 µM,
Fc1cccc(-n2c(-c3ccco3)nc3nc4ccccc4nc32)c1,inactive,
CN(C)c1nnnn1-c1ccc(Oc2ccccc2)cc1,"inconclusive: 18.4 µM [inhibitor, single point]",
COc1cccc(NC(=O)C2CCC(CNC(=O)[C@@H]3Cc4ccccc4CN3)CC2)c1 (stereo partly specified),inactive,
CCOC(=O)c1sc2nc(CC(=O)OC)nc(NCc3ccco3)c2c1C,"inconclusive: 23.1 µM [inhibitor, single point]",
O=C(NCc1ccc(F)cc1)c1c2c(nc3ccccc13)C(=O)N(C1CCCCC1)C2,"inconclusive: 18.4 µM [inhibitor, single point]",
